The source of these data is the antibiotic and cytotoxicity screens of Wong et al. (2023).

SMILES strings stand for the structures. The list shows a part of the results.

This experiment concerns S. aureus RN4220. Kind of experiment: growth inhibition call (relative growth <= 0.2). Conditions: 50 µM.
As to `Clc1ccc(C(c2ccc(Cl)cc2)[n+]2ccn(C[C@@H](OCc3ccc(Cl)cc3Cl)c3ccc(Cl)cc3Cl)c2)cc1`, the growth inhibition call is “inactive”. For `O=C(C[C@@H]1CC[C@H]2[C@@H](COC[C@H](O)CN2C(=O)c2ccc3c(c2)OCO3)O1)NCCN1CCCC1` the value was “inactive”; for `C[C@H](CO)N1C[C@H](C)[C@H](CN(C)C(=O)C2CCOCC2)Oc2ncc(C#CC3(O)CCCC3)cc2C1=O`, “inactive”. Under `CN1CCN(c2cc3c(cc2F)c(=O)c(C(=O)O)cn3-c2ccc(F)cc2)CC1.Cl` stands “active”. Under `C=CC[C@H](CC(=O)NCCO)C(=O)NC[C@@H](OC(=O)[C@H](CC=C)CC(=O)OC(C)(C)C)c1ccccc1` stands “inactive”; under `Cc1noc(C)c1S(=O)(=O)Nc1ccc2c(c1)C(=O)N([C@@H](C)CO)C[C@@H](C)[C@H](CN(C)Cc1ccc(Cl)c(Cl)c1)OCCCC[C@@H](C)O2`, “inactive”; under `CC(C)NC(=O)N(C)C[C@@H]1Oc2c(NS(=O)(=O)c3ccccc3)cccc2C(=O)N([C@H](C)CO)C[C@@H]1C`, “inactive”. Turning to `COc1ccc2c3c(n(c2c1)C)[C@@H](CO)N(C[C@]13CCN(CC1)C(=O)Nc1c(noc1C)C)C(=O)Nc1ccc(cc1)F`, the growth inhibition call was “inactive”. Under `COc1ccc(NC(=O)N(C)C[C@H]2OCCCC[C@@H](C)Oc3ccc(NS(=O)(=O)c4ccc(OC)cc4)cc3C(=O)N([C@@H](C)CO)C[C@@H]2C)cc1` stands “inactive”; under `C=C[C@H]1[C@H](O[C@H]2O[C@@H](CO)[C@@H](O)[C@@H](O)[C@@H]2O)OC=C(C(=O)OC)[C@H]1CCOC(=O)c1cc(O)c(O)c(O)c1`, “inactive”.
